Screen size: about 39,000 compounds; about 220 (0.56%) showed activity. This is one part of the list.
What follows are compounds tested on Escherichia coli K-12 BW25113 (assay: relative growth (OD600 normalised to plate interquartile mean) (fraction); higher = less growth inhibition, active = 0.2 or less). Details: 50 µM; LB; incubation time: overnight (16-24 h).
With `C[C@H]1CN([C@@H](C)CO)C(=O)Cc2cc(NC(=O)CCCCCC(=O)Nc3ccccc3N)ccc2O[C@H]1CN(C)C(=O)Nc1ccc(F)cc1` the relative growth was inactive: 0.996.
For `C[C@H]1CN([C@@H](C)CO)C(=O)Cc2cc(NC(=O)c3ccncc3)ccc2O[C@@H]1CN(C)S(=O)(=O)c1cn(C)cn1`, the relative growth was inactive: 0.994.
For `C[C@@H]1CCCCO[C@H](CN(C)C(=O)Nc2cccc3ccccc23)[C@@H](C)CN([C@@H](C)CO)C(=O)c2cc(NS(C)(=O)=O)ccc2O1`, the relative growth was inactive: 0.986.
With `CCCNC(=O)N(C)C[C@@H]1Oc2ncc(-c3ccc(C(=O)N(C)C)cc3)cc2C(=O)N([C@@H](C)CO)C[C@@H]1C` the relative growth was inactive: 1.01.
For `C[C@@H]1CCCCO[C@@H](CN(C)CC2CCCCC2)[C@H](C)CN([C@@H](C)CO)C(=O)c2cc(NC(=O)c3ccncc3)ccc2O1`, the relative growth was inactive: 1.
With `C[C@@H]1CN([C@H](C)CO)C(=O)c2cc(NC(=O)Cn3cnnn3)ccc2O[C@@H]1CN(C)S(=O)(=O)c1cccs1` the relative growth was inactive: 1.04.
For `COCC(=O)N1C[C@]2(C1)CN([C@H](CO)c1c2c2ccc(cc2n1C)OC)C(=O)CN1CCOCC1`, the relative growth was inactive: 0.983.
`N[C@H](CO)COCc1ccccc1` was tested, and the relative growth was inactive: 1.
For `C[C@@H]1CCCCO[C@H](CN(C)C(=O)Nc2ccc(C(F)(F)F)cc2)[C@H](C)CN([C@H](C)CO)C(=O)c2cc(NC(=O)c3ccncc3)ccc2O1`, the relative growth was inactive: 1.03.
In the case of `O=C(C[C@H]1CC[C@@H]2[C@H](COC[C@@H](O)CN2S(=O)(=O)c2ccccc2)O1)N[C@H]1CCN(Cc2ccccc2)C1`, the relative growth is reported as inactive: 0.998.
`COc1ccc(S(=O)(=O)N(C)C[C@H]2Oc3ccc(NC(=O)CCC(F)(F)F)cc3CC(=O)N([C@H](C)CO)C[C@@H]2C)cc1` was tested, and the relative growth was inactive: 1.
In the case of `C[C@H](CO)N1C[C@H](C)[C@H](CN(C)C(=O)c2ccccc2)Oc2cc(C#C[C@@H](C)O)ccc2S1(=O)=O`, the relative growth is reported as inactive: 0.992.
For `C[C@@H]1CN([C@@H](C)CO)C(=O)c2cc(NC(=O)NC3CCCCC3)ccc2O[C@@H](C)CCCCO[C@@H]1CN(C)S(=O)(=O)c1ccc(Cl)cc1`, the relative growth was inactive: 1.01.
For `O=c1occ(CO)c(O)c1CN1CCCCC1`, the relative growth was inactive: 0.997.
`COc1cccc(OCc2ccc(Cn3nc(NC(=O)NCc4ccccc4OC)c4ccccc43)cc2)c1` was tested, and the relative growth was inactive: 1.03.
`c1ccc(Cc2nn[nH]n2)cc1` was tested, and the relative growth was inactive: 0.983.
`O=C(CN1CCOCC1)NCC[C@@H]1CC[C@H](NS(=O)(=O)c2ccc(F)cc2)[C@@H](CO)O1` was tested, and the relative growth was inactive: 0.916.
In the case of `C[C@@H]1CN([C@@H](C)CO)C(=O)c2cc(NC(=O)Nc3ccccc3)ccc2O[C@@H](C)CCCCO[C@H]1CN(C)Cc1ccccc1`, the relative growth is reported as inactive: 0.982.
In the case of `C[C@@H]1CN([C@@H](C)CO)C(=O)c2cc(NC(=O)Nc3ccccc3)ccc2O[C@@H]1CN(C)Cc1ccc(C(F)(F)F)cc1`, the relative growth is reported as inactive: 0.99.
In the case of `CNC1C(OC2OC(CO)C(N)C(O)C2O)OC2CC(N)C(OC3C(N)CC(N)C(O)C3O)OC2C1O.O=S(=O)(O)O` (configuration not stated), the relative growth is reported as inactive: 1.2.
In the case of `COc1ccc(NC(=O)Nc2ccc3c(c2)C(=O)N([C@@H](C)CO)C[C@@H](C)[C@H](CN(C)CC2CCCCC2)OCCCC[C@H](C)O3)cc1`, the relative growth is reported as inactive: 1.03.
For `COc1ccc(-c2cnc3c(c2)C(=O)N([C@H](C)CO)C[C@H](C)[C@H](CN(C)S(=O)(=O)c2cccc(F)c2)O3)cc1`, the relative growth was inactive: 1.03.
In the case of `Cn1cnc(S(=O)(=O)N2CC[C@H]3NC(=O)C[C@H]32)c1`, the relative growth is reported as inactive: 0.998.
With `COc1ccc(S(=O)(=O)N[C@@H](CNc2nc(C)nc(N3CCC(c4ccc5c(n4)NCCC5)CC3)c2C)C(=O)O)cc1` the relative growth was inactive: 1.01.
With `CC(C)=CCOc1cc(C)cc2oc(=O)cc(-c3ccccc3)c12` the relative growth was inactive: 0.972.
With `CC(CCC(=O)O)C1CCC2C3C(O)CC4CC(O)CCC4(C)C3CCC12C` (configuration not stated) the relative growth was inactive: 1.01.
In the case of `N#Cc1cccnc1N1CCCNC(=O)C1`, the relative growth is reported as inactive: 0.943.
In the case of `C[C@H](CO)N1C[C@H](C)[C@@H](CN(C)C(=O)Nc2cccc3ccccc23)Oc2ccc(NS(=O)(=O)c3ccc(F)cc3)cc2CC1=O`, the relative growth is reported as inactive: 1.04.
For `C[C@@H]1CN([C@@H](C)CO)C(=O)c2cc(NC(=O)c3ccncc3)ccc2O[C@@H](C)CCCCO[C@H]1CN(C)C(=O)NC1CCCCC1`, the relative growth was inactive: 0.983.
With `N[C@@H](Cc1c[nH]c2ccc(O)cc12)C(=O)O` the relative growth was inactive: 1.
In the case of `Cc1noc(C)c1NC(=O)Nc1ccc2c(c1)C(=O)N([C@@H](C)CO)C[C@@H](C)[C@H](CN(C)CC1CC1)OCCCC[C@H](C)O2`, the relative growth is reported as inactive: 1.02.
In the case of `C[C@@H]1CCCCO[C@H](CN(C)CC2CC2)[C@H](C)CN([C@@H](C)CO)C(=O)c2cc(NC(=O)Nc3ccccc3)ccc2O1`, the relative growth is reported as inactive: 1.
`CC1COC2=C1C(=O)C(=O)c1c2ccc2c1CCCC2(C)C` (configuration not stated) was tested, and the relative growth was inactive: 1.04.
`Cc1noc(C)c1NC(=O)Nc1ccc2c(c1)C(=O)N([C@H](C)CO)C[C@@H](C)[C@@H](CN(C)Cc1ccc(Cl)c(Cl)c1)OCCCC[C@H](C)O2` was tested, and the relative growth was inactive: 1.03.
In the case of `CC(C)NC(=O)Nc1ccc2c(c1)CC(=O)N([C@@H](C)CO)C[C@@H](C)[C@@H](CN(C)Cc1ccc3c(c1)OCO3)O2`, the relative growth is reported as inactive: 0.973.
For `C[C@H]1CN([C@@H](C)CO)S(=O)(=O)c2ccc(C#CC(C)(C)O)cc2O[C@H]1CN(C)Cc1ccccc1`, the relative growth was inactive: 1.01.
`CN1CCN(C(=O)C[C@H]2CC[C@@H]3[C@H](COC[C@H](O)CN3C(=O)Nc3ccc4c(c3)OCO4)O2)CC1` was tested, and the relative growth was inactive: 0.974.
In the case of `C[C@@H]1CN([C@H](C)CO)C(=O)c2cc(C#CC3CC3)cnc2O[C@H]1CN(C)S(=O)(=O)c1cccc(F)c1`, the relative growth is reported as inactive: 1.03.
In the case of `C[C@@H]1CN([C@@H](C)CO)C(=O)c2cccc(NC(=O)Nc3cccc4ccccc34)c2O[C@H]1CN(C)S(=O)(=O)c1ccc2ncsc2c1`, the relative growth is reported as inactive: 1.01.
For `Cc1noc(C)c1NC(=O)N(C)C[C@H]1OCCCC[C@H](C)Oc2ccc(NS(=O)(=O)c3ccc(F)cc3)cc2C(=O)N([C@H](C)CO)C[C@@H]1C`, the relative growth was inactive: 0.993.
In the case of `C[C@H]1CN([C@@H](C)CO)C(=O)Cc2cc(NS(=O)(=O)c3ccccc3)ccc2O[C@H]1CN(C)Cc1ccc2c(c1)OCO2`, the relative growth is reported as inactive: 1.03.
In the case of `C[C@H]1CN([C@@H](C)CO)C(=O)Cc2cc(NC(=O)Cc3ccccc3)ccc2O[C@H]1CN(C)Cc1ccc(C(F)(F)F)cc1`, the relative growth is reported as inactive: 1.06.
In the case of `C[C@@H]1CN([C@@H](C)CO)S(=O)(=O)c2ccc(Br)cc2O[C@@H]1CN(C)C(=O)NC1CCCCC1`, the relative growth is reported as inactive: 1.02.
With `O=C(C[C@H]1C[C@@H]2c3cc(NS(=O)(=O)c4ccc(F)cc4)ccc3O[C@@H]2[C@@H](CO)O1)NC1CCCC1` the relative growth was inactive: 1.02.
In the case of `C[C@H]1CCCCO[C@H](CN(C)Cc2ccc(C(F)(F)F)cc2)[C@@H](C)CN([C@@H](C)CO)C(=O)c2cc(NS(=O)(=O)c3ccc(Cl)cc3)ccc2O1`, the relative growth is reported as inactive: 1.08.
For `C[C@H]1CN([C@@H](C)CO)C(=O)Cc2cc(NS(=O)(=O)c3cn(C)cn3)ccc2O[C@@H]1CN(C)CC1CCCCC1`, the relative growth was inactive: 0.998.
For `C[C@H](CO)N1C[C@H](C)[C@H](CN(C)Cc2cncnc2)Oc2cc(C3=CCCCC3)ccc2S1(=O)=O`, the relative growth was inactive: 0.986.
With `C[C@@H]1CN([C@H](C)CO)C(=O)Cc2cc(NS(C)(=O)=O)ccc2O[C@@H]1CN(C)Cc1ccc(C(=O)O)cc1` the relative growth was inactive: 1.
For `CNC(=O)C[C@@H]1CC[C@@H]2[C@H](COc3ccc(NC(=O)c4ccc(C(F)(F)F)cc4)cc3C(=O)N2C)O1`, the relative growth was inactive: 0.98.
With `O=C(NCC(F)(F)F)C1CCNCC1` the relative growth was inactive: 0.98.
For `CC(C)NCC(O)COc1cccc2[nH]ccc12` (configuration not stated), the relative growth was inactive: 0.917.
`C[C@@H]1CCCCO[C@@H](CN(C)C(=O)Nc2ccccc2)[C@@H](C)CN([C@@H](C)CO)C(=O)c2cc(NC(=O)Nc3ccc(C(F)(F)F)cc3)ccc2O1` was tested, and the relative growth was inactive: 1.04.
In the case of `COc1ccc(NC(=O)N(C)C[C@@H]2Oc3ccc(NS(=O)(=O)c4c(C)noc4C)cc3CC(=O)N([C@H](C)CO)C[C@@H]2C)cc1`, the relative growth is reported as inactive: 0.994.
For `COc1ccc(CN(C)C[C@@H]2OCCCC[C@@H](C)Oc3ccc(NS(=O)(=O)c4c(C)noc4C)cc3C(=O)N([C@@H](C)CO)C[C@@H]2C)cc1`, the relative growth was inactive: 0.936.
`C[N+](C)(C)CCCC[C@@H]1NC(=O)[C@@H]2C[C@H](C(=O)NCc3ccc(F)cc3)[C@H](c3cccc(OCCO)c3)N2C1=O` was tested, and the relative growth was inactive: 1.01.
`C[C@H]1CN([C@@H](C)CO)C(=O)c2cc(NC(=O)C3CC3)ccc2O[C@H]1CN(C)S(=O)(=O)c1cn(C)cn1` was tested, and the relative growth was inactive: 0.976.
For `C[C@H](CO)N1C[C@H](C)[C@H](CN(C)S(=O)(=O)c2ccc(C#N)cc2)OCc2cnnn2CCCC1=O`, the relative growth was inactive: 0.986.
In the case of `C[C@@H]1CN([C@@H](C)CO)C(=O)c2cc(C#Cc3cccc(F)c3)cnc2O[C@@H]1CN(C)CC1CCOCC1`, the relative growth is reported as inactive: 0.987.
For `Cn1cnc(S(=O)(=O)N2C[C@@H](O)COC[C@H]3O[C@@H](CC(=O)NCc4ccc(F)cc4)CC[C@@H]32)c1`, the relative growth was inactive: 1.01.
For `Cc1ccc2nc(SCc3c(C)c(C)cc(C)c3C)[nH]c2c1`, the relative growth was inactive: 1.02.
For `COc1ccc(S(=O)(=O)N(C)C[C@H]2Oc3c(NS(=O)(=O)c4ccccc4)cccc3C(=O)N([C@H](C)CO)C[C@H]2C)cc1`, the relative growth was inactive: 1.01.
With `C[C@@H]1CN([C@@H](C)CO)C(=O)c2cc(NC(=O)Cc3ccccc3)ccc2O[C@H]1CN(C)Cc1ccc(Oc2ccccc2)cc1` the relative growth was inactive: 0.961.
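Also: static incubation at 37 °C against the wild-type strain, values averaged over two biological replicates.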
